# Results are given in words; binding and its absence hold for the method and conditions named. Some entries that bind do so weakly or less than the wild type. For part of these data: Where a sequence is shown, tags or fusion partners need not be part of it.
# Protein sequences, listed by entry. Tags and fused reporters are not part of them. Lines headed by an entry give the natural chain unless they say otherwise; changes in a name come on top.
# UniProt P81947: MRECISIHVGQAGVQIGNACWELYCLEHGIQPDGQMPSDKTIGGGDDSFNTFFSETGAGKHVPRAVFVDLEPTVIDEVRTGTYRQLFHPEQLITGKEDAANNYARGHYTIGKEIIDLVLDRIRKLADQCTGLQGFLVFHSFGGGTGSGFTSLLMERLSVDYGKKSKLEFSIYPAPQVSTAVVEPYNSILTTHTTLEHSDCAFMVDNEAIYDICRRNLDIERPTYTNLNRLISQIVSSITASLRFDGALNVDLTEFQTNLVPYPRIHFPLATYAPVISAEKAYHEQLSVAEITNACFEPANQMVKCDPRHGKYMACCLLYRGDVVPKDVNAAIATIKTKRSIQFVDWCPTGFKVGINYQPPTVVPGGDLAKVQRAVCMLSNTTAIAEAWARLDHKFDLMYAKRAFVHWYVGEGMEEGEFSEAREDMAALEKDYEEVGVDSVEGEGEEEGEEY
# UniProt Q6B856: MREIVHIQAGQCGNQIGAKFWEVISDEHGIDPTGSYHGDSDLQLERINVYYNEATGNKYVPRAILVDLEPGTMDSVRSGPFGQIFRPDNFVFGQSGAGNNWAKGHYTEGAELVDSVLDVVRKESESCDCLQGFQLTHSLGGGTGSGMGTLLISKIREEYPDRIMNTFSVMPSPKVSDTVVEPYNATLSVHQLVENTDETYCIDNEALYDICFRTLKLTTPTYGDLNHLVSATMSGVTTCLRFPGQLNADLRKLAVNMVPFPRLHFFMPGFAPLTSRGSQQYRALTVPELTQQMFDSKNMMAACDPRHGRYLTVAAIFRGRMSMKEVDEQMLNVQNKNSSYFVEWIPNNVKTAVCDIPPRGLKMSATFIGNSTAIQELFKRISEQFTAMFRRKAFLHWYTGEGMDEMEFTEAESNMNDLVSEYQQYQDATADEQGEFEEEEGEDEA
# Assays:
# [1] = target: T1, taxol-stabilized microtubules (α-/β-tubulin) (bovine) (UniProt P81947+Q6B856); test: co-sedimentation; microtubule-binding reaction: 3 μM microtubules (taxol-stabilized or subtilisin-treated) and 3 μM protein; 25 mM Hepes pH 7.5, 150 mM NaCl, 1 mM MgCl2, 1 mM EGTA, 2 mM DTE; 350,000 g, 25 °C; both purified
# [2] = target: T1, taxol-stabilized microtubules (α-/β-tubulin) (bovine); test: co-sedimentation; taxol-stabilized microtubules with purified isolated constructs (Fig. 1d, Supplementary Fig. 2A); concentrations not told for these constructs; both purified
# [3] = target: T1, taxol-stabilized microtubules (α-/β-tubulin) (bovine); test: co-sedimentation; Kd determination: 0-10 μM taxol-stabilized microtubules (tubulin dimer), 1 μM BSA, 1 μM protein of interest; 25 mM Hepes pH 7.5, 150 mM NaCl, 1 mM MgCl2, 1 mM EGTA, 2 mM DTE; 10 min room temperature; 350,000 g, 25 °C; gel densitometry, quadratic fit; apparent Kd; both purified
binding [2],Binder,binding [1],other results
no binding,"SKAP^226–316 (domain or fragment, UniProt Q9Y448 226-316) LDPALGSETLASRQESTTDHMDSMLLLETLQEELKLFNETAKKQMEELQALKVKLEMKEERVRFLEQQTLCNNQVNDLTTALKEMEQLLEM",,
no binding,"Astrin^966–1,175 (domain or fragment, UniProt Q96R06 966-1175) MEESLAEMSIMTTELQSLCSLLQESKEEAIRTLQRKICELQARLQAQEEQHQEVQKAKEADIEKLNQALCLRYKNEKELQEVIQQQNEKILEQIDKSGELISLREEVTHLTRSLRRAETETKVLQEALAGQLDSNCQPMATNWIQEKVWLSQEVDKLRVMFLEMKNEKEKLMIKFQSHRNILEENLRRSDKELEKLDDIVQHIYKTLLSI",,

# Continued, binder first:
Binder,binding [2],binding [1],other results
"GST-SKAP^175–225 (domain or fragment, UniProt Q9Y448 175-225) LKDKNQLLEAVNKQLHQKLTETQGELKDLTQKVELLEKFRDNCLAILESKG",,"no binding (tested: 3 μM microtubules, 3 μM protein)",
"Astrin^1–239 (domain or fragment, UniProt Q96R06 1-239) MWRVKKLSLSLSPSPQTGKPSMRTPLRELTLQPGALTNSGKRSPACSSLTPSLCKLGLQEGSNNSSPVDFVNNKRTDLSSEHFSHSSKWLETCQHESDEQPLDPIPQISSTPKTSEEAVDPLGNYMVKTIVLVPSPLGQQQDMIFEARLDTMAETNSISLNGPLRTDDLVREEVAPCMGDRFSEVAAVSEKPIFQESPSHLLEESPPNPCSEQLHCSKESLSSRTEAVREDLVPSESNA",no binding,,
"SKAP^135–225 6A mutant (K140A, K149A, K161A, K164A, K168A, K170A) (domain or fragment, UniProt Q9Y448 135-225) VTKITALRRENGQMAATDTATRRNVRAGYAPLSAQASEEELKDKNQLLEAVNKQLHQKLTETQGELKDLTQKVELLEKFRDNCLAILESKG",,,"binding [3]: no binding (tested: 0–10 μM microtubules, 1 μM protein)"
"VTKITKLRRENGQMKATDTATRRNVRKGYKPLSKQKSEEE (domain or fragment, UniProt Q9Y448 135-174) [GST-SKAP^135–174]",,binds weakly,

# Reference: publication PMC4843017
